Some of the results follow.
Legend:
Assay in all cases: glycan array binding signal (z-score within array); higher = stronger binding
Conditions in all cases: glycan notation: IUPAC condensed, linker removed; mutation: N288D, K313I
[1] = molecular target: Neu5Ac(a2-3)Gal(b1-4)[Fuc(a1-3)]GlcNAc(b1-6)[Neu5Ac(a2-3)Gal(b1-3)]GalNAc
Method in brief: (§1)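 The Consortium for Functional Glycomics database supplied 3228 glycan arrays, of which those lacking an available protein sequence were dropped. The binding signal, a within-array Z-score, was averaged across arrays of the same protein sequence and across linkers. Negative scores can be read as non-binding.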

[2] = molecular target: Neu5Ac(a2-3)Gal(b1-4)[Fuc(a1-3)]GlcNAc6S
Method in brief: as §1

[3] = molecular target: Neu5Ac(a2-3)Gal6S(b1-4)GlcNAc
Method in brief: as §1

[4] = molecular target: Neu5Ac(a2-3)Gal6S(b1-4)[Fuc(a1-3)]GlcNAc
Method in brief: as §1

Neu5Ac(a2-3)GalNAc = molecular target: Neu5Ac(a2-3)GalNAc
Method in brief: as §1

[5] = molecular target: Neu5Ac(a2-3)GalNAc(b1-4)GlcNAc
Method in brief: as §1

[6] = molecular target: Neu5Ac(a2-3)[GalNAc(b1-4)]Gal(b1-4)Glc
Method in brief: as §1

[7] = molecular target: Neu5Ac(a2-3)[GalNAc(b1-4)]Gal(b1-4)GlcNAc
Method in brief: as §1

[8] = molecular target: Neu5Ac(a2-3)[GalNAc(b1-4)]Gal(b1-4)GlcNAc(b1-3)GalNAc
Method in brief: as §1

[9] = molecular target: Neu5Ac(a2-3)[Neu5Ac(a2-6)]GalNAc
Method in brief: as §1

Neu5Ac(a2-6)Gal = molecular target: Neu5Ac(a2-6)Gal
Method in brief: as §1

[10] = molecular target: Neu5Ac(a2-6)Gal(b1-3)GlcNAc(b1-3)[Gal(b1-4)GlcNAc(b1-6)]Gal(b1-4)Glc
Method in brief: as §1

Neu5Ac(a2-6)Gal(b1-4)Glc = molecular target: Neu5Ac(a2-6)Gal(b1-4)Glc
Method in brief: as §1

[11] = molecular target: Neu5Ac(a2-6)Gal(b1-4)GlcNAc
Method in brief: as §1

[12] = molecular target: Neu5Ac(a2-6)Gal(b1-4)GlcNAc(b1-2)Man
Method in brief: as §1

[13] = molecular target: Neu5Ac(a2-6)Gal(b1-4)GlcNAc(b1-2)Man(a1-3)Man(b1-4)GlcNAc(b1-4)GlcNAc
Method in brief: as §1

[14] = molecular target: Neu5Ac(a2-6)Gal(b1-4)GlcNAc(b1-2)Man(a1-3)[Gal(b1-4)GlcNAc(b1-2)Man(a1-6)]Man(b1-4)GlcNAc(b1-4)GlcNAc
Method in brief: as §1

[15] = molecular target: Neu5Ac(a2-6)Gal(b1-4)GlcNAc(b1-2)Man(a1-3)[GlcNAc(b1-2)Man(a1-6)]Man(b1-4)GlcNAc(b1-4)GlcNAc
Method in brief: as §1

[16] = molecular target: Neu5Ac(a2-6)Gal(b1-4)GlcNAc(b1-2)Man(a1-3)[GlcNAc(b1-4)][Neu5Ac(a2-6)Gal(b1-4)GlcNAc(b1-2)Man(a1-6)]Man(b1-4)GlcNAc(b1-4)GlcNAc
Method in brief: as §1

[17] = molecular target: Neu5Ac(a2-6)Gal(b1-4)GlcNAc(b1-2)Man(a1-3)[Man(a1-6)]Man(b1-4)GlcNAc(b1-4)GlcNAc
Method in brief: as §1

[18] = molecular target: Neu5Ac(a2-6)Gal(b1-4)GlcNAc(b1-2)Man(a1-3)[Neu5Ac(a2-3)Gal(b1-4)GlcNAc(b1-2)Man(a1-6)]Man(b1-4)GlcNAc(b1-4)GlcNAc
Method in brief: as §1

[19] = molecular target: Neu5Ac(a2-6)Gal(b1-4)GlcNAc(b1-2)Man(a1-3)[Neu5Ac(a2-6)Gal(b1-4)GlcNAc(b1-2)Man(a1-6)]Man(b1-4)GlcNAc(b1-4)GlcNAc
Method in brief: as §1

[20] = molecular target: Neu5Ac(a2-6)Gal(b1-4)GlcNAc(b1-2)Man(a1-3)[Neu5Ac(a2-6)Gal(b1-4)GlcNAc(b1-2)Man(a1-6)]Man(b1-4)GlcNAc(b1-4)[Fuc(a1-6)]GlcNAc
Method in brief: as §1

[21] = molecular target: Neu5Ac(a2-6)Gal(b1-4)GlcNAc(b1-2)Man(a1-6)Man(b1-4)GlcNAc(b1-4)GlcNAc
Method in brief: as §1

[22] = molecular target: Neu5Ac(a2-6)Gal(b1-4)GlcNAc(b1-2)Man(a1-6)[Gal(b1-4)GlcNAc(b1-2)Man(a1-3)]Man(b1-4)GlcNAc(b1-4)GlcNAc
Method in brief: as §1

[23] = molecular target: Neu5Ac(a2-6)Gal(b1-4)GlcNAc(b1-2)Man(a1-6)[GlcNAc(b1-2)Man(a1-3)]Man(b1-4)GlcNAc(b1-4)GlcNAc
Method in brief: as §1

[24] = molecular target: Neu5Ac(a2-6)Gal(b1-4)GlcNAc(b1-2)Man(a1-6)[Man(a1-3)]Man(b1-4)GlcNAc(b1-4)GlcNAc
Method in brief: as §1

B1: Langerin (Homo sapiens), Q9UJ71 (protein)
chain: STLNAQIPELKSDLEKASALNTKIRALQGSLENMSKLLKRQNDILQVVSQGWKYFKGNFYYFSLIPKTWYSAEQFCVSRNSHLTSVTSESEQEFLYKTAGGLIYWIGLTKAGMEGDWSWVDDTPFNKVQSARFWIPGEPNDAGNNEHCGNIKAPSLQAWNDAPCDITFLFICKRPYVPSEP
[1]
  glycan array binding signal (z-score): -0.125
[2]
  glycan array binding signal (z-score): -0.369
[3]
  glycan array binding signal (z-score): -0.223
[4]
  glycan array binding signal (z-score): -0.213
Neu5Ac(a2-3)GalNAc
  glycan array binding signal (z-score): -0.35
[5]
  glycan array binding signal (z-score): -0.179
[6]
  glycan array binding signal (z-score): -0.304
[7]
  glycan array binding signal (z-score): -0.079
[8]
  glycan array binding signal (z-score): -0.084
[9]
  glycan array binding signal (z-score): -0.291
Neu5Ac(a2-6)Gal
  glycan array binding signal (z-score): -0.24
[10]
  glycan array binding signal (z-score): -0.202
Neu5Ac(a2-6)Gal(b1-4)Glc
  glycan array binding signal (z-score): -0.182
[11]
  glycan array binding signal (z-score): -0.343
[12]
  glycan array binding signal (z-score): -0.109
[13]
  glycan array binding signal (z-score): -0.115
[14]
  glycan array binding signal (z-score): -0.022
[15]
  glycan array binding signal (z-score): -0.325
[16]
  glycan array binding signal (z-score): -0.29
[17]
  glycan array binding signal (z-score): -0.2
[18]
  glycan array binding signal (z-score): -0.156
[19]
  glycan array binding signal (z-score): -0.15
[20]
  glycan array binding signal (z-score): -0.182
[21]
  glycan array binding signal (z-score): -0.131
[22]
  glycan array binding signal (z-score): -0.158
[23]
  glycan array binding signal (z-score): -0.278
[24]
  glycan array binding signal (z-score): -0.187
